Our source for the cytotoxicity call and growth inhibition call values is the antibiotic and cytotoxicity screens of Wong et al. (2023).

One experiment has as its system HSkMC. The experiment can be described thus: cytotoxicity call (relative viability < 0.9). The conditions noted are these: 10 µM.
In the next experiment the test system is HepG2. The experiment can be described thus: cytotoxicity call (relative viability < 0.9). As to conditions: 10 µM.
For a further experiment, the system named is S. aureus RN4220. The experiment can be described thus: growth inhibition call (relative growth <= 0.2). As to conditions: 50 µM.

Some of the results follow.

`O=C(C[C@H]1CC[C@H]2[C@@H](COC[C@H](O)CN2C(=O)c2ccncc2)O1)NC1CCC1`: the cytotoxicity call with HSkMC and in the experiment on HepG2 was “inactive” throughout. Moreover, in the experiment on S. aureus RN4220, the growth inhibition call was “inactive”.

Regarding `O=C(O)c1cnns1`, the cytotoxicity call in the experiment with HSkMC and in the experiment with HepG2 was “inactive” throughout. Also, the growth inhibition call in the experiment on S. aureus RN4220 is “inactive”.

Consider `Cc1cc(-c2cccs2)cc(C)n1`, for which the cytotoxicity call in the experiment with HSkMC and with HepG2 was “inactive” in each case. In addition, the growth inhibition call with S. aureus RN4220 was “inactive”.

As to `NCC(=O)Nc1ccc(F)c(F)c1F`, the cytotoxicity call in the experiment on HSkMC and in the experiment with HepG2 was “inactive” throughout. For the same compound, in the experiment on S. aureus RN4220, the growth inhibition call is “inactive”.

As for `CN(C)Cc1nc2c([nH]1)c(=O)[nH]c(=O)n2C`, the cytotoxicity call in the experiment on HSkMC was “inactive”. Moreover, the cytotoxicity call in the experiment on HepG2 is “active”. Moreover, the growth inhibition call in the experiment on S. aureus RN4220 was “inactive”.

`C[C@H]1CN([C@@H](C)CO)C(=O)Cc2cc(NC(=O)Cn3cnnn3)ccc2O[C@@H]1CN(C)Cc1ccc2c(c1)OCO2`: the cytotoxicity call in the experiment with HSkMC and in the experiment with HepG2 was “inactive” throughout. Further, the growth inhibition call with S. aureus RN4220 was “inactive”.

On to `Cc1nc(-c2ccc(OCC(C)C)c(C#N)c2)sc1C(=O)O`, for which the cytotoxicity call in the experiment on HSkMC is “inactive”. Also, in the experiment on HepG2, the cytotoxicity call was “active”. The growth inhibition call with S. aureus RN4220 was “inactive”.

As to `C[C@@H]1CN([C@H](C)CO)C(=O)c2cc(NS(=O)(=O)c3ccc(Cl)cc3)ccc2O[C@@H](C)CCCCO[C@@H]1CN(C)Cc1ccc2c(c1)OCO2`, the cytotoxicity call in the experiment on HSkMC and with HepG2 was “inactive” each time. The growth inhibition call in the experiment on S. aureus RN4220 was “inactive”.

For the compound `Cc1cc[nH]c(=O)c1`, the cytotoxicity call in the experiment with HSkMC and with HepG2 was “inactive” throughout. The growth inhibition call with S. aureus RN4220 is “inactive”.

For `C[C@@H]1CN([C@@H](C)CO)C(=O)c2cc(C#CC3(O)CCCC3)cnc2O[C@H]1CN(C)C(=O)C1CCOCC1`, the cytotoxicity call in the experiment with HSkMC and with HepG2 was “inactive” in each case. In addition, in the experiment with S. aureus RN4220, the growth inhibition call was “inactive”.

Turning to `C[C@@H]1CN([C@@H](C)CO)C(=O)c2cccc(NS(C)(=O)=O)c2O[C@H]1CN(C)C(=O)Nc1ccc(C(F)(F)F)cc1`, the cytotoxicity call with HSkMC and in the experiment on HepG2 was “inactive” each time. Also, the growth inhibition call in the experiment with S. aureus RN4220 was “active”.

Take `CN(C)CC(=O)OCC(O)C(O)C(O)C(O)C(=O)[O-].[Na+]` (configuration not stated): the cytotoxicity call with HSkMC and in the experiment on HepG2 was “inactive” throughout. For the same compound, the growth inhibition call in the experiment on S. aureus RN4220 was “inactive”.

As for `COc1ccc(NC(=O)Nc2ccc3c(c2)C(=O)N([C@H](C)CO)C[C@H](C)[C@H](CN(C)C(=O)Cc2ccccc2)OCCCC[C@@H](C)O3)cc1`, the cytotoxicity call with HSkMC and in the experiment on HepG2 was “inactive” each time. Further, in the experiment on S. aureus RN4220, the growth inhibition call was “inactive”.

As to `C=C(NC(=O)C(=C)NC(=O)c1csc(C2=NC3c4csc(n4)C4NC(=O)c5csc(n5)C(C(C)(O)C(C)O)NC(=O)C5CSC(=N5)C(=CC)NC(=O)C(C(C)O)NC(=O)c5csc(n5)C3(CC2)NC(=O)C(C)NC(=O)C(=C)NC(=O)C(C)NC(=O)C(C(C)CC)NC2C=Cc3c(C(C)O)cc(nc3C2O)C(=O)OC4C)n1)C(N)=O` (configuration not stated), the cytotoxicity call in the experiment with HSkMC is “inactive”. Further, the cytotoxicity call in the experiment on HepG2 was “active”. In the experiment with S. aureus RN4220, the growth inhibition call was “active”.

For `C[C@@H]1CN([C@H](C)CO)C(=O)c2cc(NC(=O)CCCCCC(=O)Nc3ccccc3N)ccc2O[C@H]1CN(C)CC1CCCCC1`, the cytotoxicity call in the experiment on HSkMC and with HepG2 was “inactive” each time. Also, the growth inhibition call in the experiment with S. aureus RN4220 is “inactive”.

With `C[C@H](CO)N1C[C@H](C)[C@H](CN(C)Cc2ccncc2)Oc2ccc(NC(=O)CCN3CCOCC3)cc2CC1=O`, the cytotoxicity call with HSkMC and in the experiment with HepG2 was “inactive” throughout. The growth inhibition call with S. aureus RN4220 is “inactive”.

Consider `COc1ccccc1CNC(=O)C[C@@H]1C[C@H]2c3cc(NC(=O)NC4CCCC4)ccc3O[C@H]2[C@@H](CO)O1`, for which the cytotoxicity call in the experiment on HSkMC and in the experiment with HepG2 was “inactive” in each case. Moreover, the growth inhibition call with S. aureus RN4220 is “inactive”.

With `COc1ccc(S(=O)(=O)N(C)C[C@@H]2Oc3ccc(N(C)C)cc3C(=O)N([C@H](C)CO)C[C@@H]2C)cc1`, the cytotoxicity call in the experiment with HSkMC and in the experiment with HepG2 was “inactive” throughout. Moreover, the growth inhibition call with S. aureus RN4220 is “inactive”.

`CCCC#Cc1ccc2c(c1)O[C@@H](CN(C)Cc1ccc3c(c1)OCO3)[C@H](C)CN([C@@H](C)CO)S2(=O)=O`: the cytotoxicity call with HSkMC and in the experiment on HepG2 was “inactive” in each case. For the same compound, in the experiment on S. aureus RN4220, the growth inhibition call was “inactive”.

Consider `CCCCCCc1nc(CCCc2cc3c(c(CCCCCC)n2)[Si](C(C)C)(C(C)C)O[C@H]3c2ccccc2)cc2c1[Si](C(C)C)(C(C)C)O[C@H]2c1ccccc1`, for which the cytotoxicity call in the experiment on HSkMC and in the experiment with HepG2 was “inactive” each time. Besides, the growth inhibition call in the experiment with S. aureus RN4220 was “inactive”.

Regarding `O=C(CN1CCOCC1)NCC[C@H]1CC[C@H](NC(=O)c2ccc3c(c2)OCO3)[C@H](CO)O1`, the cytotoxicity call in the experiment with HSkMC and in the experiment with HepG2 was “inactive” throughout. The growth inhibition call in the experiment with S. aureus RN4220 was “inactive”.

For the compound `O=C(C[C@@H]1C=C[C@@H](NC(=O)c2ccc3c(c2)OCO3)[C@H](CO)O1)NCc1ccc(Oc2ccccc2)cc1`, the cytotoxicity call in the experiment on HSkMC (human skeletal muscle cells) and in the experiment on HepG2 was “inactive” in each case. The growth inhibition call with S. aureus RN4220 was “inactive”.

Consider `COc1ccc(CN(C)C[C@@H]2OCCCC[C@@H](C)Oc3ccc(NC(=O)Nc4ccc5c(c4)OCO5)cc3C(=O)N([C@@H](C)CO)C[C@H]2C)cc1`, for which the cytotoxicity call with HSkMC was “inactive”. The cytotoxicity call in the experiment on HepG2 was “active”. Also, in the experiment with S. aureus RN4220, the growth inhibition call is “inactive”.

With `Cc1noc(C)c1NC(=O)Nc1ccc2c(c1)C(=O)N([C@H](C)CO)C[C@H](C)[C@H](CN(C)C(=O)Nc1c(C)noc1C)OCCCC[C@@H](C)O2`, the cytotoxicity call in the experiment with HSkMC and in the experiment on HepG2 was “inactive” throughout. Besides, the growth inhibition call in the experiment on S. aureus RN4220 was “inactive”.

`C[C@@H]1CN([C@@H](C)CO)C(=O)c2cc(NC(=O)Nc3ccccc3)ccc2O[C@@H]1CN(C)C(=O)Nc1ccc(C(F)(F)F)cc1`: the cytotoxicity call with HSkMC and in the experiment with HepG2 was “inactive” throughout. The growth inhibition call with S. aureus RN4220 is “inactive”.

`COCC(=O)Nc1ccc2c(c1)C(=O)N(C)C[C@H](OC)[C@H](C)CN(Cc1ccccc1OC)[C@@H](C)CO2`: the cytotoxicity call in the experiment with HSkMC and in the experiment on HepG2 was “inactive” throughout. The growth inhibition call in the experiment with S. aureus RN4220 is “inactive”.

Regarding `O=C(C1=C[C@H](c2coc3ccccc3c2=O)C[C@H](OCCCCO)O1)N1CCN(Cc2ccc3c(c2)OCO3)CC1`, the cytotoxicity call in the experiment with HSkMC and in the experiment on HepG2 was “inactive” throughout. In addition, the growth inhibition call in the experiment with S. aureus RN4220 is “inactive”.

Take `C[C@@H]1CCCCO[C@H](CN(C)C(=O)c2ccccc2)[C@@H](C)CN([C@@H](C)CO)C(=O)c2cc(NC(=O)Cc3ccccc3)ccc2O1`: the cytotoxicity call in the experiment with HSkMC and in the experiment with HepG2 was “inactive” throughout. Also, the growth inhibition call in the experiment on S. aureus RN4220 was “inactive”.

Turning to `C[C@@H]1CN([C@@H](C)CO)C(=O)Cc2cc(NC(=O)Nc3cccc4ccccc34)ccc2O[C@H]1CN(C)C(=O)Nc1ccccc1`, the cytotoxicity call with HSkMC and with HepG2 was “inactive” in each case. Also, in the experiment with S. aureus RN4220, the growth inhibition call is “inactive”.
